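All cell lines were grown in 96-well plates and treated with compound for 48 hours. GI50 = concentration required for 50% inhibition of growth.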 Calls of active or inactive are those of the source. Rule as the data show it: active = GI50 up to about 1.1 µM and inactive = higher.
The molecules below were run on NCI-H322M (assay: DTP human tumour cell line panel, 48 h).

Structure (SMILES)	GI50
Cc1cc(S(=O)(=O)/N=C(\NN)Nc2ccc(Cl)cc2)c(S)cc1Cl	inactive: 10 µM
O=C(c1cccs1)N1CCc2ccccc2C1	inactive: > 100 µM
CC(C)C(O)(C(C)C)C(C)C	inactive: > 100 µM
O=C(O)c1cc(O)nc(S)n1	inactive: > 100 µM
CC(=O)OC1CCC2(C)C(CCC3C2CC(=O)C2(C)C3CC(N3CC3)C2C(C)=O)C1 (stereo unspecified)	inactive: 20.4 µM
Nc1nc(-c2cc(-c3cccc4ccccc34)nc(N)n2)cc(-c2cccc3ccccc23)n1	inactive: > 100 µM
C/C(=N\Nc1nc2cc(C)ccc2s1)c1ccccn1	active: 0.662 µM
Cc1c2n(c3ccccc13)CC1C2N(C)OC1(C)C (stereo unspecified)	inactive: > 100 µM
COC(=O)Nc1nc2cc(NS(=O)(=O)c3cccs3)ccc2[nH]1	inactive: 37.3 µM
FC(F)(F)C1(Cl)C(c2ccccc2)=C1c1ccccc1	inactive: 17.9 µM
O=C(N/N=C\c1ccc([N+](=O)[O-])cc1)c1ccccc1Nc1ccccc1C(=O)N/N=C/c1ccc([N+](=O)[O-])cc1	inactive: > 100 µM
NC(=S)N/N=C1\C(=O)N(CCc2ccccc2)C(=O)C1C(=O)NCCc1ccccc1 (stereo unspecified)	inactive: > 100 µM
CN(C)CCC(=O)/C=C\c1ccccc1	inactive: 31.3 µM
COc1ccc(CNC2=C(NC(C)=O)C(=O)c3ccccc3C2=O)cc1	inactive: > 50 µM
Cc1cccc(/C=N/NC(=S)N2CCCC2)n1	active: 0.126 µM
Clc1ccc(Nc2ncco2)cc1Cl	inactive: > 10 µM
O=S1(=O)c2ccccc2C(Nc2ccccc2)N1c1ccccc1 (stereo unspecified)	inactive: > 100 µM
Cc1ccc(NC(=O)C(=O)C(C(=O)c2ccc3ccccc3c2)C2OC(=O)c3ccccc32)c(C)c1 (stereo unspecified)	inactive: 7.85 µM
C/C(=N\Nc1cc(CN2CCCC2)c(-c2ccc(Cl)cc2)nn1)C(=O)O	inactive: > 100 µM
COC(=O)C(Cc1nc2ccccc2nc1O)C(=O)C(=O)Nc1ccc([N+](=O)[O-])cc1[N+](=O)[O-] (stereo unspecified)	inactive: 35.3 µM
Cc1nnc(Sc2nc(C#N)c(C#N)nc2Sc2nnc(C)s2)s1	inactive: 19 µM
CC(C)COC(=O)OC(=O)c1ccc(N(C)Cc2cnc3nc(N)nc(N)c3n2)cc1	inactive: 51.9 µM

Structure (SMILES)	GI50
Cc1ccc(S(=O)(=O)n2c3c(c4ccccc42)CCN2C(=O)C(S(=O)(=O)c4ccccc4)=CCC32)cc1 (stereo unspecified)	active: 0.0119 µM
O=C1CCCC2=C1CC1=C(CCCC1=O)N2c1ccc([N+](=O)[O-])cc1	inactive: > 100 µM
COc1ccc2[nH]c3c(c2c1)[C@H](c1ccccc1)C[C@@H]1C(=O)N(c2ccccc2)C(=O)[C@H]31	inactive: 91.2 µM
COc1ccc(/C(Cl)=C(\C=O)c2ccc(Cl)c(Cl)c2)cc1	inactive: 14 µM
CSC(Cc1ccc2c(c1)Sc1ccccc1O2)=[N+]1CCOCC1	inactive: > 100 µM
CC1CC[C@@]2(OC1)O[C@H]1[C@H](O)[C@H]3[C@@H]4CC[C@H]5C[C@@H](OC6OC(CO)C(OC7OC(CO)C(O)C(OC8OCC(O)C(O)C8O)C7OC7OC(CO)C(O)C(O)C7OC7OC(CO)C(O)C(O)C7O)C(O)C6O)[C@H](O)C[C@]5(C)[C@H]4CC[C@]3(C)[C@H]1[C@@H]2C (stereo partly specified)	inactive: > 10 µM
O=c1[nH]c(=O)n([C@@H]2C[C@H](CO)[C@H](O)C2)cc1/C=C/Br	inactive: > 100 µM
Cc1nc2cccc([N+](=O)[O-])c2c(NCCCN(C)C)c1C	inactive: 30 µM
CCCCC#COP(=O)(OCC)OCC	inactive: > 100 µM
COc1cc2c(C)cc(O)cc2c2cc(O)c(C)cc12	inactive: 12.4 µM
NCCc1ccc2c(c1)C(=O)c1c(O)ccc(O)c1C2=O	inactive: 5.65 µM
O=[N+]([O-])c1cc2[nH]nnc2c2nonc12	inactive: 37.6 µM
N=c1n(CC(=O)NC23CC4CC(CC(C4)C2)C3)c2ccccc2n1CC(=O)NC12CC3CC(CC(C3)C1)C2	inactive: 2.4 µM
Cn1c(=O)c2c(nc(-n3nc(-c4ccc(Cl)cc4)cc3N)n2C)n(C)c1=O	inactive: 32.2 µM
CCOC(=O)NC(=O)c1cn(CCCOC(=O)CCCCCCCCC(=O)OCCCn2cc(C(=O)NC(=O)OCC)c(=O)n(C)c2=O)c(=O)n(C)c1=O	inactive: > 100 µM
COC(=O)c1ccccc1/N=C/c1ccc(N(CCC#N)S(=O)(=O)c2ccccc2)cc1	inactive: > 100 µM
O=C(Nc1ccc(Cl)cc1)c1cc(S(=O)(=O)Nc2nc3cccnc3[nH]2)c(SSc2cc(Cl)c(C(=O)Nc3ccc(Cl)cc3)cc2S(=O)(=O)Nc2nc3cccnc3[nH]2)cc1Cl	inactive: > 100 µM
CCC(CCC(C)C1CCC2C3CC=C4CC(OC5OC(CO)C(O)C(O)C5O)CCC4(C)C3CCC12C)C(C)C (stereo unspecified)	inactive: > 100 µM
CC1CC(=O)c2c(ccc3c2C(=O)c2cccc(O)c2C3=O)C1 (stereo unspecified)	inactive: 18.6 µM
COc1ccc(C(SCCO)(c2ccccc2)c2ccc(OC)cc2)cc1	inactive: 3.37 µM
CN(C)c1nc(N(C)C)nc(N(C)CN(C)c2ccc(Cl)cc2)n1	inactive: > 100 µM
Cc1ccc(NC(Nc2ccc(C)cc2C)=C(/C=C(\Cl)[N+](=O)[O-])[N+](=O)[O-])c(C)c1	inactive: 15.7 µM

Structure (SMILES)	GI50
COc1cccc(NC(=O)C(C)(C)C)c1C=O	inactive: > 100 µM
CCOC(=O)C1C(c2ccco2)C2(C#N)C(=N)OC1(C)C2(C#N)C#N (stereo unspecified)	inactive: > 100 µM
CC(=O)NC(CSC1=C2NC(=O)\C=C/C=C\C=C/C(C)C(O)CC(=O)/C(C)=C\CC(O)/C=C\C(C)C(O)C(C)C=C(C)C(=O)c3c(O)c(C)cc(c3C1=O)C2=O)C(=O)O (stereo unspecified)	inactive: > 100 µM
COC(=O)NC(=O)c1cn(C2OC(CO)C(O)C2O)c(=O)[nH]c1=O (stereo unspecified)	inactive: > 100 µM
c1ccc2c(c1)Sc1ccccc1N2CCCN1c2ccccc2Sc2ccccc21	inactive: > 100 µM
N#Cc1nnn(C2CCCCC2)c1O	inactive: > 100 µM
Cn1c(=O)c(-c2ccccc2)c(N=[N+]=[N-])c2ccccc21	inactive: > 100 µM
COc1ccc(/C=C/c2cc(O)cc(OC3OC(CO)C(O)C(O)C3O)c2)cc1O (stereo unspecified)	inactive: > 100 µM
O=c1ccn([C@H]2CSC[C@@H](CO)C2)c(=O)[nH]1	inactive: > 100 µM
CSc1c(C(=O)Nc2ccc(Cl)cc2)c(N)n(N)c(=O)c1C#N	inactive: 25.1 µM
O=[N+]([O-])C1(CO)COC2(OC1)c1ccccc1-c1ccccc12	inactive: > 100 µM
CCCCC(C(=O)N/N=C/c1ccc([N+](=O)[O-])o1)C(=O)N/N=C/c1ccc([N+](=O)[O-])o1	inactive: 14.9 µM
CC(CN(C)C)C(C#N)(c1ccccc1)c1ccccc1 (stereo unspecified)	inactive: > 100 µM
O=c1c2cnccc2cc2c3ccccc3ccn12	inactive: 91.8 µM
N#Cc1c(-c2ccccc2)c(C#N)c(=O)n(NS(=O)(=O)c2ccccc2)c1O	inactive: > 100 µM
O=C(O)CCC(NC(=O)c1ccc(Nc2nc3ccc(C(F)(F)F)cc3nc2C(=O)O)cc1)C(=O)O (stereo unspecified)	inactive: 48.3 µM
Cc1sccc1C(=S)Nc1ccc(Cl)c(/C=N/OC(C)(C)C)c1	inactive: 33.8 µM
O=C(O)CC(NC(=O)C(F)(F)F)C(=O)NC1Cc2ccccc2OC1=O (stereo unspecified)	inactive: > 100 µM
CNc1ccc([S+]([O-])Nc2ccc(OC)cc2)cc1 (stereo unspecified)	inactive: > 100 µM
O=C(O)c1cc2ccccc2c(/N=N/c2c([N+](=O)[O-])cc([N+](=O)[O-])cc2S(=O)(=O)O)c1O	inactive: > 100 µM
CC1=NN(c2nc(N)nc(/C(C#N)=C\C3COc4ccccc4C3=O)n2)C(C)(C)C1 (stereo unspecified)	inactive: 38.1 µM
CC1(C)N=C(N)N=C(N)N1c1cccc(CSc2ccccc2)c1	active: 0.285 µM

Structure (SMILES)	GI50
O=c1cc(-c2ccccc2)oc2cc(Oc3nnnn3-c3ccccc3)ccc12	inactive: 31.5 µM
O=C1C(Cl)C2(CC(/C=C/c3ccccc3)=NN2c2cccc(S(=O)(=O)O)c2)N1c1nc2ccccc2s1 (stereo unspecified)	inactive: 47.6 µM
O=[N+]([O-])c1cccc2nc3ccccc3c(NCCN(CCO)CCO)c12	active: 0.00585 µM
Cc1ccc([N+](=O)[O-])c2c(NCCNC(=O)Cn3ccnc3[N+](=O)[O-])ccnc12	inactive: 42 µM
CCOC1OC(COC(=O)C(C)(C)C)C(O)CC1n1cc(C)c(=O)[nH]c1=O (stereo unspecified)	inactive: > 100 µM
COC(=O)C1=C(O)C(C(=O)OC)[C@]2(O)[C@H](C(=O)OC)[C@H]1C[C@@H](c1ccc(OC)c(OC)c1)[C@H]2C(=O)OC (stereo partly specified)	inactive: 57.3 µM
N#CC(/C(CCCC(=O)Nc1cccc([N+](=O)[O-])c1)=N\NC(=O)c1c(O)ccc2ccccc12)c1nc2ccccc2s1 (stereo unspecified)	inactive: 18.1 µM
CN(C)CC/C(=N\Nc1ccc(Cl)cc1)c1ccccc1	inactive: 3.48 µM
O=C1C2=C(C(=O)c3c(O)ccc(O)c31)[C@@H](O)[C@@H](O)[C@@H](O)C2	inactive: 3.73 µM
Brc1ccc(N2C[N+](c3ccc(Br)cc3)=NC(c3ccccc3)=N2)cc1.[O-][Cl+3]([O-])([O-])[O-]	inactive: 68.7 µM
Clc1ccccc1C1=NN(c2ccccc2)C2c3cc(Br)ccc3OCC12 (stereo unspecified)	inactive: > 100 µM
Cc1cccc2c(=O)c3cccc([C@@H](C)C(=O)O)c3oc12	inactive: > 100 µM
CC(=N)OC1CC2CCC1(C)C2(C)C (stereo unspecified)	inactive: > 100 µM
CC1OC(OC2C(OC(=O)[C@]34CCC(C)(C)CC3C3=CCC5[C@@]6(C)C[C@H](O)[C@H](OC7OC(COC8OC(CO)C(O)C(O)C8O)C(O)C(O)C7O)[C@@](C)(C(=O)O)C6CC[C@@]5(C)C3(C)CC4)OCC(O)C2O)C(O)C(O)C1OC1OCC(O)C(O)C1O (stereo partly specified)	inactive: > 100 µM
C=C1C(=O)C23C(O)C1CC[C@H]2C12CCCC(C)(COC(C)=O)[C@H]1[C@H](O)[C@]3(O)OC2 (stereo partly specified)	inactive: 4.02 µM
CC(=O)C1C(=O)C(=O)N(c2cccc([N+](=O)[O-])c2)C1=O (stereo unspecified)	inactive: > 100 µM
Nc1nc(O)c2nc(CNc3ccc(C(=O)NC(CCC(=O)O)C(=O)O)cc3)cnc2n1 (stereo unspecified)	inactive: > 100 µM
CCCCc1ccc(Nc2ncc3ncn(COCCO)c3n2)cc1	inactive: 52.4 µM
COc1cc(OC)c(-c2cc(=O)c3c(OC)c(OC)c(OC)c(OC)c3o2)cc1OC	inactive: > 100 µM
O=C(NC1=C(Cl)C(=O)c2ccccc2C1=O)C(=O)c1c(O)c2ccccc2oc1=O	inactive: 6.55 µM

— ChEMBL document CHEMBL1201862, “PubChem BioAssay data set” (2004)
